Measurements published in the supplement of paper PMC10441789.
This is one part of the list. Antibody binding of pooled human sera (four to six donors per pool; dilution not stated) to peptides of the Trypanosoma cruzi antigen TSSA on microarrays. Quantile-normalised fluorescence in arbitrary units, mean of duplicate arrays; higher = more binding. No active / inactive call. The uninfected pools are read here as the healthy donors of the same country. The strongest signals lie near the top of the scale (about 60,000).

Legend:
Experiment in all cases: antibody binding signal (normalised fluorescence) (arbitrary fluorescence units); higher = stronger serum antibody binding to peptide
[1] = tested on: pooled sera of chronic Chagas disease patients, Argentina
Method: (§1)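 Microarray of 15-residue peptides over residues 30-55 of Trypanosoma cruzi TSSAII, each with 1 to 10 substitutions at naturally variable positions, probed with one serum pool per country.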

[2] = tested on: pooled sera of chronic Chagas disease patients, Bolivia
Method: as §1

[3] = tested on: pooled sera of chronic Chagas disease patients, Brazil
Method: as §1

[4] = tested on: pooled sera of chronic Chagas disease patients, Colombia
Method: as §1

[5] = tested on: pooled sera of chronic Chagas disease patients, Mexico
Method: as §1

[6] = tested on: pooled sera of chronic Chagas disease patients, USA
Method: as §1

[7] = tested on: pooled sera of uninfected people, Argentina
Method: as §1

[8] = tested on: pooled sera of uninfected people, Bolivia
Method: as §1

[9] = tested on: pooled sera of uninfected people, Brazil
Method: as §1

[10] = tested on: pooled sera of uninfected people, Mexico
Method: as §1

[11] = tested on: pooled sera of uninfected people, USA
Method: as §1

| Sequence | antibody binding signal [1] | antibody binding signal [2] | antibody binding signal [3] | antibody binding signal [4] | antibody binding signal [5] | antibody binding signal [6] | antibody binding signal [7] | antibody binding signal [8] | antibody binding signal [9] | antibody binding signal [10] | antibody binding signal [11] |
| --- | --- | --- | --- | --- | --- | --- | --- | --- | --- | --- | --- |
| DKKAATGEAPSQPGA | 23100 | 20400 | 41500 | 186 | 401 | 23500 | 488 | 104 | 161 | 221 | 216 |
| SGKENKTAAGETPSQ | 4900 | 3830 | 19300 | 7430 | 5430 | 18400 | 7180 | 3230 | 340 | 874 | 185 |
| KPAAGGAPSPSGASS | 146 | 197 | 331 | 1540 | 2280 | 607 | 265 | 142 | 127 | 87.3 | 189 |
| TDKKAATGGAPSPPG | 2260 | 282 | 1400 | 2020 | 2020 | 1630 | 395 | 414 | 152 | 146 | 146 |
| KKTATGGAPSQSGAS | 1320 | 221 | 630 | 927 | 512 | 650 | 338 | 271 | 99.9 | 98.3 | 226 |
| SSTPPSGTEKKAATG | 38600 | 3000 | 29800 | 549 | 25700 | 4730 | 981 | 420 | 127 | 108 | 152 |
| SGKDKKTATGGTPSQ | 851 | 684 | 428 | 1420 | 962 | 1660 | 211 | 96.9 | 113 | 135 | 119 |
| GTDKKTATGGAPSQP | 1220 | 317 | 2300 | 2950 | 1340 | 1050 | 340 | 449 | 122 | 231 | 155 |
| GTENKPATGGAPSQS | 42200 | 17500 | 11300 | 718 | 2440 | 3480 | 522 | 2400 | 574 | 280 | 224 |
| DKKPAAGETPSQPGA | 908 | 1650 | 36100 | 180 | 264 | 2560 | 141 | 477 | 214 | 225 | 140 |
| DNKPAAGEAPSPSGA | 462 | 2890 | 27700 | 297 | 159 | 16400 | 167 | 231 | 350 | 267 | 92.9 |
| KDNKAATGGAPSPPG | 301 | 264 | 513 | 280 | 247 | 1220 | 324 | 1050 | 160 | 91.5 | 92.5 |
| DNKPAAGGAPSPSGA | 218 | 620 | 3070 | 1750 | 244 | 755 | 331 | 365 | 558 | 373 | 189 |
| GTDKKPAAGGTPSPS | 306 | 316 | 852 | 10300 | 623 | 1130 | 152 | 336 | 1300 | 254 | 193 |
| TEKKPAAGETPSPSG | 1050 | 192 | 1470 | 383 | 439 | 3010 | 111 | 289 | 262 | 309 | 2320 |
| GKDKKTAAGETPSQS | 396 | 242 | 290 | 832 | 836 | 1130 | 112 | 118 | 82.7 | 76.5 | 77.8 |
| TSSTPPSGTENKAAA | 49300 | 38900 | 54300 | 402 | 3540 | 36900 | 5530 | 993 | 319 | 318 | 1360 |
| SGKDKKTATGGAPSP | 953 | 218 | 385 | 918 | 663 | 887 | 224 | 87.7 | 99 | 82.6 | 107 |
| GKDNKPAAGEAPSPS | 1660 | 763 | 21100 | 1600 | 1590 | 15700 | 193 | 784 | 154 | 307 | 84.5 |
| KKAATGGAPSQSGAS | 1010 | 495 | 463 | 458 | 578 | 717 | 327 | 222 | 131 | 260 | 223 |
| PSGKENKTAAGETPS | 10200 | 3650 | 10600 | 9380 | 9070 | 9240 | 7190 | 3710 | 252 | 661 | 282 |
| PSGTDKKAATGGTPS | 1980 | 485 | 5340 | 5280 | 2150 | 2150 | 263 | 411 | 362 | 593 | 211 |
| KPAAGEAPSQSGASS | 770 | 17200 | 20300 | 115 | 201 | 9160 | 277 | 231 | 121 | 232 | 134 |
| TDNKPAAGGAPSPPG | 1120 | 798 | 3650 | 1350 | 262 | 942 | 181 | 299 | 309 | 304 | 131 |
| PPSGTDKKAATGGAP | 12400 | 4490 | 23400 | 3860 | 31500 | 2490 | 797 | 1040 | 151 | 2000 | 445 |

| Sequence | antibody binding signal [1] | antibody binding signal [2] | antibody binding signal [3] | antibody binding signal [4] | antibody binding signal [5] | antibody binding signal [6] | antibody binding signal [7] | antibody binding signal [8] | antibody binding signal [9] | antibody binding signal [10] | antibody binding signal [11] |
| --- | --- | --- | --- | --- | --- | --- | --- | --- | --- | --- | --- |
| STPPSGKENKAATGE | 16200 | 25400 | 11300 | 428 | 2030 | 5340 | 2270 | 1660 | 354 | 210 | 316 |
| GTDKKAATGEAPSPP | 21500 | 23500 | 30900 | 2040 | 451 | 25400 | 445 | 242 | 145 | 258 | 167 |
| GKDNKAAAGGAPSQS | 374 | 205 | 277 | 1140 | 813 | 593 | 162 | 367 | 122 | 90.9 | 115 |
| KKTAAGGAPSPPGAS | 182 | 220 | 191 | 4330 | 430 | 533 | 256 | 141 | 141 | 104 | 252 |
| PSGTDNKPAAGETPS | 37200 | 18900 | 46400 | 5300 | 521 | 7600 | 210 | 680 | 674 | 453 | 212 |
| TPPSGKEKKAATGET | 10300 | 347 | 1240 | 903 | 9620 | 1510 | 448 | 668 | 109 | 109 | 164 |
| TDKKTATGEAPSQSG | 12200 | 30000 | 19000 | 208 | 762 | 20700 | 233 | 121 | 206 | 190 | 129 |
| TISTPPSGKENKAAA | 17100 | 3150 | 7770 | 773 | 3570 | 2820 | 4110 | 1280 | 278 | 155 | 1070 |
| KKTAAGGTPSQPGAS | 230 | 357 | 211 | 4380 | 261 | 1420 | 355 | 165 | 404 | 279 | 243 |
| GTEKKAAAGETPSQS | 1190 | 432 | 2250 | 844 | 849 | 2980 | 113 | 819 | 205 | 166 | 135 |
| KKTATGETPSQPGAS | 709 | 1330 | 23200 | 246 | 210 | 4380 | 374 | 417 | 114 | 237 | 422 |
| TDKKAAAGETPSQSG | 735 | 421 | 3270 | 410 | 244 | 1020 | 98.5 | 176 | 172 | 248 | 113 |
| KDKKAAAGGTPSQPG | 201 | 204 | 172 | 1690 | 290 | 999 | 216 | 74.3 | 606 | 136 | 87.2 |
| SGKEKKAATGGTPSP | 2810 | 798 | 1690 | 2540 | 3190 | 4040 | 203 | 113 | 189 | 74.3 | 139 |
| TPPSGTDNKTAAGEA | 33900 | 26300 | 42100 | 642 | 13300 | 7870 | 599 | 383 | 638 | 125 | 174 |
| KEKKAATGEAPSQPG | 11000 | 4230 | 33300 | 165 | 234 | 17200 | 337 | 81.4 | 119 | 77 | 114 |
| PSGKENKPAAGEAPS | 10500 | 5790 | 20900 | 11300 | 11000 | 18600 | 7430 | 5560 | 380 | 569 | 294 |
| TSSTPPSGKDNKPAA | 19200 | 4440 | 22800 | 669 | 21100 | 13600 | 1230 | 956 | 156 | 118 | 363 |
| PPSGKDNKTATGETP | 1520 | 3160 | 2140 | 1140 | 8310 | 5520 | 365 | 479 | 241 | 112 | 188 |
| STPPSGKDNKAATGE | 13300 | 18500 | 12000 | 313 | 18600 | 5880 | 303 | 693 | 208 | 143 | 117 |
| GTEKKAAAGGTPSQP | 680 | 200 | 327 | 6270 | 616 | 1820 | 236 | 523 | 1270 | 434 | 150 |
| KKAAAGGAPSQSGAS | 197 | 238 | 180 | 2740 | 324 | 258 | 209 | 106 | 120 | 126 | 187 |
| PSGTENKTATGETPS | 37900 | 31200 | 42300 | 864 | 1260 | 12500 | 1100 | 477 | 222 | 323 | 408 |
| DKKPATGGTPSQPGA | 888 | 833 | 4190 | 2660 | 707 | 694 | 464 | 431 | 1190 | 600 | 204 |
